From the supplement of paper PMC12217912
This is one part of the list. The full chains were built here from the parent and the listed change. Values near 0.05 are background.

B1: TEV protease; numbered along this chain (parent)
chain: MGESLFKGPRDYNPISSSICHLTNESDGHTTSLYGIGFGPFIITNKHLFRRNNGTLVVQSLHGVFKVKDTTTLQQHLVDGRDMIIIRMPKDFPPFPQKLKFREPQREERICLVTTNFQTKSMSSMVSDTSCTFPSGDGIFWKHWIQTKDGQCGSPLVSTRDGFIVGIHSASNFTNTNNYFTSVPKNFMELLTNQEAQQWVSGWRLNADSVLWGGHKVFMVKPEEPFQPVKEATQL

Variants of: B1
Experiment: raw area under fraction-flipped curve 0-4 h after induction (AUC4h, not background-subtracted), DNA-recorder readout of cleavage of the substrate (dimensionless); higher = more cleavage of the substrate by the protease variant
Details: temperature: 34 °C; time window: 0-4 h after rhamnose induction
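Note: Bxb1 expression induced with 0.2% (w/v) L-rhamnose at OD600 near 0.5, cultures sampled hourly, flipped fraction per protease–substrate barcode pair counted by paired-end Illumina sequencing.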

Row | Variant | area with substrate ENLYEQS | area with substrate ENLYGQS | area with substrate ENLYIQS | area with substrate ENLYLQS | area with substrate ENLYNQS | area with substrate ENLYQQS | area with substrate ENLYRQS | area with substrate ENLYSQS | area with substrate ENLYTQS | area with substrate ENLYMQS
1 | P228W | 0.0734 | 0.0598 | 0.123 | 0.087 | 0.0679 | 0.0662 | 0.0648 | 0.0619 | 0.0739 | 
2 | G214F | 0.0521 | 0.0653 |  |  | 0.0574 |  |  |  |  | 0.0482
3 | Q97E |  | 0.0675 |  |  | 0.0669 |  | 0.0589 | 0.103 | 0.0709 | 
4 | Q97D |  | 0.0768 |  |  |  |  |  |  |  | 
5 | Q97R | 0.111 |  |  |  |  |  | 0.0362 | 0.0531 |  | 
6 | Q97N | 0.0702 |  | 0.101 |  |  |  | 0.0483 |  |  | 
7 | H76F |  | 0.0628 | 0.132 |  | 0.0761 | 0.0677 | 0.0688 |  |  | 0.0657
8 | T119R | 0.0583 |  |  |  |  |  |  |  |  | 
9 | T119W |  | 0.0806 |  |  |  | 0.0609 |  |  |  | 
10 | T119S |  | 0.0763 |  |  |  | 0.0639 | 0.0587 |  | 0.079 | 0.105
11 | T119L |  | 0.035 | 0.125 |  |  | 0.0629 |  |  |  | 
12 | T119G | 0.119 |  |  |  | 0.0638 |  |  |  |  | 
13 | N186T | 0.075 | 0.0697 | 0.102 | 0.136 | 0.0631 |  |  |  | 0.0598 | 
14 | S201Q | 0.0637 | 0.12 |  |  |  |  |  |  |  | 0.0714
15 | G80L | 0.0888 | 0.0704 | 0.0884 |  |  |  | 0.0501 |  |  | 
16 | W199S | 0.0428 | 0.0575 | 0.0803 |  |  |  |  | 0.075 |  | 
17 | M1I |  | 0.0605 |  |  |  |  |  |  |  | 
18 | N193K |  | 0.0412 |  |  |  |  | 0.0727 |  |  | 
19 | N193Y | 0.0547 | 0.0769 |  |  |  | 0.0683 |  | 0.0607 |  | 0.0758
20 | T159P | 0.0492 | 0.0777 |  |  |  |  |  |  |  | 
21 | G35A |  | 0.056 |  |  |  |  |  |  |  | 
22 | K100Q | 0.059 |  |  |  | 0.0864 | 0.0746 | 0.0633 | 0.0668 | 0.0861 | 0.081
23 | S135H | 0.0665 |  | 0.0563 |  |  |  | 0.0621 |  | 0.0669 | 
24 | S182M |  | 0.0311 |  |  |  |  |  |  |  | 
25 | S182E | 0.057 | 0.0505 | 0.0739 | 0.0683 | 0.062 |  |  |  |  | 0.055
26 | S182C | 0.0716 |  | 0.123 |  |  |  | 0.0572 | 0.113 |  | 

Row | Variant | area with substrate ENLYEQS | area with substrate ENLYGQS | area with substrate ENLYIQS | area with substrate ENLYLQS | area with substrate ENLYNQS | area with substrate ENLYQQS | area with substrate ENLYRQS | area with substrate ENLYSQS | area with substrate ENLYTQS | area with substrate ENLYMQS
27 | K148L |  | 0.0526 | 0.129 |  | 0.063 | 0.0747 |  |  | 0.0868 | 0.0852
28 | S209K | 0.0198 | 0.0618 |  |  |  |  | 0.0647 |  |  | 0.0714
29 | S209R | 0.0592 |  |  |  | 0.0825 | 0.0689 |  | 0.0354 |  | 0.0752
30 | S209Y | 0.0661 | 0.0501 | 0.178 |  |  |  |  | 0.0555 |  | 0.111
31 | H215I | 0.0621 |  |  |  |  |  |  |  |  | 
32 | F6N |  | 0.0672 |  |  | 0.0853 |  | 0.0638 | 0.0805 |  | 
33 | G138F |  | 0.0528 |  |  |  |  |  |  |  | 
34 | G138A |  | 0.0645 |  |  |  | 0.0645 |  |  |  | 
35 | G138M | 0.0628 |  |  |  | 0.0498 |  | 0.0737 |  |  | 
36 | G138L |  | 0.0741 | 0.093 |  |  |  |  |  |  | 0.0653
37 | R109Y |  | 0.0618 | 0.0981 |  |  |  |  | 0.0565 | 0.104 | 
38 | F101H | 0.0489 |  |  | 0.0402 | 0.0384 |  |  |  | 0.0721 | 0.0599
39 | I145N |  | 0.0437 |  |  |  | 0.0609 |  |  |  | 
40 | K90A |  | 0.0616 | 0.101 |  |  | 0.049 |  | 0.0788 | 0.0711 | 
41 | T174I |  | 0.0639 |  |  | 0.062 |  | 0.0582 |  | 0.0614 | 
42 | T174G | 0.0689 | 0.0427 | 0.0895 |  | 0.0626 | 0.0566 |  |  |  | 0.0761
43 | T174C | 0.0666 |  |  |  | 0.0508 |  |  | 0.0505 |  | 
44 | T174F | 0.0591 | 0.059 | 0.122 |  |  | 0.0609 |  |  |  | 
45 | G2F |  |  | 0.191 |  | 0.0393 | 0.0713 |  |  | 0.101 | 0.122
46 | P89V | 0.0445 | 0.0689 |  | 0.034 | 0.0439 |  |  |  | 0.0691 | 0.0527
47 | T129H | 0.0687 |  |  |  | 0.0811 |  |  | 0.0914 |  | 
48 | F173T |  | 0.0656 |  | 0.0528 | 0.07 |  |  |  | 0.077 | 
49 | T147V |  | 0.0679 |  |  | 0.0602 |  |  |  | 0.0681 | 
50 | F92K | 0.0621 | 0.0626 | 0.107 |  | 0.0863 |  |  | 0.0772 |  | 
51 | F92V | 0.0992 | 0.0754 |  |  |  |  | 0.0302 |  |  | 
52 | L61T |  | 0.0692 |  |  |  | 0.0813 |  |  |  | 0.0805

Same assay, conditions: temperature: 34 °C; time window: 0-4 h after rhamnose induction

Row | Variant | area with substrate ENLYVQS | area with substrate ENLYYQS | area with substrate ENLYPQS | area with substrate ENLYWQS | area with substrate ENLYKQS | area with substrate ENLYHQS
53 | G214F | 0.0759 | 0.0571 |  |  |  | 
54 | Q97E | 0.0953 |  | 0.0552 |  |  | 
55 | Q97D |  |  |  | 0.127 |  | 
56 | Q97N |  |  | 0.0774 | 0.0735 | 0.0828 | 
57 | H76F | 0.0879 | 0.0508 | 0.0766 | 0.0706 | 0.0602 | 0.0534
58 | T119R | 0.0323 |  | 0.0906 |  |  | 0.0605
59 | T119W | 0.122 |  | 0.0898 | 0.0948 |  | 
60 | T119S | 0.136 |  | 0.0446 | 0.0858 | 0.0524 | 0.0681
61 | T119L |  |  |  |  | 0.0236 | 
62 | T119G |  |  |  |  |  | 0.0629
63 | N186T |  |  | 0.081 | 0.0764 | 0.0703 | 
64 | S201Q | 0.124 |  |  | 0.108 | 0.0571 | 0.062
65 | G80L | 0.133 | 0.0747 |  | 0.0409 |  | 0.0758
66 | W199S | 0.0638 |  | 0.0748 |  | 0.0453 | 
67 | M1I | 0.0472 |  |  |  | 0.0674 | 
68 | N193Y | 0.0977 |  |  | 0.0637 |  | 0.0614
69 | T159P |  |  | 0.0774 | 0.112 |  | 0.0366
70 | G35A |  | 0.0719 |  |  |  | 0.0569
71 | K100Q | 0.109 |  |  | 0.0905 | 0.0735 | 0.0724
72 | S135H |  |  |  | 0.0622 |  | 0.0637
73 | S182E | 0.0867 | 0.0904 |  | 0.0495 | 0.063 | 0.0677
74 | S182C |  |  |  |  | 0.0664 | 0.0707
75 | K148L | 0.114 | 0.041 | 0.0768 | 0.0992 | 0.0831 | 0.0741

Row | Variant | area with substrate ENLYVQS | area with substrate ENLYYQS | area with substrate ENLYPQS | area with substrate ENLYWQS | area with substrate ENLYKQS | area with substrate ENLYHQS
76 | S209K | 0.0785 |  |  |  |  | 0.0573
77 | S209R |  |  | 0.0386 | 0.0823 |  | 
78 | S209Y |  |  |  |  | 0.0699 | 0.0681
79 | F6N |  |  |  | 0.0946 | 0.0419 | 0.0633
80 | G138M |  |  | 0.0535 |  |  | 0.0696
81 | G138L | 0.122 |  |  | 0.0615 |  | 
82 | R109Y |  | 0.0767 | 0.0617 |  | 0.037 | 0.0734
83 | F101H | 0.0469 |  | 0.035 |  |  | 
84 | I145N | 0.142 |  |  | 0.0591 |  | 
85 | K90A | 0.126 |  |  |  | 0.0482 | 
86 | T174I |  |  |  |  |  | 0.0618
87 | T174G | 0.089 | 0.0573 | 0.0749 |  | 0.0797 | 0.078
88 | T174C |  | 0.0626 | 0.0677 |  |  | 
89 | T174F |  | 0.0605 | 0.0547 | 0.0734 |  | 0.0736
90 | G2F | 0.0657 |  |  | 0.139 |  | 0.0839
91 | P89V |  |  | 0.05 |  |  | 
92 | T129H |  |  |  |  |  | 0.0874
93 | F173T |  | 0.0656 | 0.0754 |  | 0.07 | 0.0638
94 | T147V | 0.0725 |  | 0.0658 |  | 0.0217 | 0.0613
95 | F92K | 0.102 |  | 0.0695 |  | 0.0562 | 0.072
96 | F92V |  |  |  | 0.0947 |  | 
97 | L61T | 0.133 |  |  |  |  | 
